Source: the supplement of paper PMC10126150
Sequences with one replicate were seen in a single cluster, so their values are uncertain.

Test system: ATP
Assay: switch fluorescence ratio, 500 uM ATP over buffer (Cy3 cluster intensity, sum of 5 cycles each) (fold (ratio)); higher = stronger signal-on switching upon ATP binding; sequences stand for … in TCGTCGGCAGCGTCAGATGTGTATAAGAGACAGTTTTTTTTTTTTTTTTTTTTTTTTT…TC
Details: aptamer strand: ATP DNA aptamer (quencher-CACCTGGGGGAGTATTGCGGAGGAAGG + anchor), 100 nM annealed; ATP concentration: 500 uM; one replicate
Outline: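 Between each of five buffer/ATP cycles, the flow-cell was stripped with NaOH and re-annealed. Each cycle imaged Cy3-labelled switching-strand clusters, annealed to 100 nM quencher-labelled ATP aptamer on a modified Illumina MiSeq flow-cell, first in selection buffer and then after 15 min with 500 uM ATP at 22 °C. The fluorescence ratio is summed target-cycle over summed buffer-cycle Cy3 intensity per cluster, averaged per switch-domain sequence, with clusters outside 100-1000 RFU excluded.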
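Further: ATP exposure 15 min at 22 °C before imaging.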

Row | Sequence | switch fluorescence ratio
1 | TGTGAGCCGA | 0.965
2 | TCCGGAAGCA | 1.03
3 | CGCATGGAA | 1.01
4 | AGCTGCCTCT | 1.03
5 | TAAGGACCGT | 1.01
6 | CCAATTGATT | 0.94
7 | TCTGCCGGCC | 1.06
8 | ACTTAGTTAT | 0.98
9 | GCATTGTAGT | 0.995
10 | GGCGCGAAAC | 2.27
11 | CATTGCACCG | 1.04
12 | TAAGAATAGA | 0.984
13 | TAGGTCGCTC | 1.01
14 | GGATTAGCTA | 1.03
15 | ACGTCTCGGA | 0.959
16 | CCAGAGCGGA | 2.5
17 | GAGTCGCAGT | 0.981
18 | TTTTATGACT | 0.983
19 | TCGGTCATCA | 1.01
20 | CTATGACTCC | 1.13
21 | GAGAGTTACG | 0.974
22 | TGGGGTAGG | 1.04
23 | TAATGCAATG | 0.979

Row | Sequence | switch fluorescence ratio
24 | GGAGTACGAG | 0.981
25 | TAGTTGGGTG | 0.977
26 | TTTATAGCTT | 1.01
27 | ATTTTCG | 1.01
28 | AGGTGAAAGC | 0.965
29 | ATTCCCACGA | 1.06
30 | GAGTAGGCTC | 0.963
31 | GTGATTTAAG | 0.963
32 | TTCTGCGGG | 1
33 | AATGGTCAGC | 0.968
34 | TTGGCGGTTG | 0.973
35 | AGCCTTGTTA | 1.05
36 | CGGGCAGTCG | 1.02
37 | AGCGGATCCG | 0.999
38 | TTATTCTTG | 1
39 | ATATCTGGAG | 0.95
40 | GCACTGTTCC | 1.12
41 | TTAGCTACGT | 1.04
42 | CCGGAATAGT | 4.39
43 | CGTAGATAAC | 1.04
44 | AGAACCGGAG | 1.12
45 | GCGCTTAGTG | 1.11
46 | ACAGAACGTT | 1.13

Row | Sequence | switch fluorescence ratio
47 | GGGATTCAGT | 0.99
48 | GTGTCTTCA | 1.01
49 | TGACCTCTG | 0.977
50 | AACGACGGGC | 1.26
51 | CCTGGCGCTC | 2.28
52 | TTAATATCGA | 1.02
53 | TCATTACCAG | 1.02
54 | CGCAGGGATA | 7.05
55 | CCTAAGAATT | 1.03
56 | AATATCCCAA | 1.03
57 | TCTGACGTCC | 1.08
58 | TAGCGCTGTT | 1.05
59 | AATGGCCCTA | 0.999
60 | ATTTTACGGC | 1.09
61 | GCTAGCTTCG | 1.02
62 | TCTCGTATTT | 1.05
63 | TACTAAGGAT | 0.97
64 | TCGTTGATAT | 1.08
65 | CGTGCATAAG | 0.988
66 | TCCAGCGCGC | 1.04
67 | GGTGGCATCA | 0.962
68 | TCATTAAAGC | 0.996
69 | GGTCTAGTAC | 0.996

Row | Sequence | switch fluorescence ratio
70 | ATAGCGAGTG | 0.986
71 | TGACGACTTT | 0.998
72 | AAGGTGTTGA | 1.03
73 | CTAGTCCGAG | 1.07
74 | GAGTCGCGGC | 0.877
75 | GCGTACATTA | 1.02
76 | TTTGCGCCCT | 0.956
77 | GTACTCTCCC | 1.48
78 | GAGATAGGCA | 1
79 | TACAGGGTGG | 0.985
80 | GTTCATTTGA | 1.04
81 | TGCTTGCTTG | 0.992
82 | GGTACGATTG | 1.02
83 | AAGGTGTACG | 1.06
84 | AACGCCCACA | 1.27
85 | ACATTATAT | 1.04
86 | ATTCTTCGT | 1.01
87 | GGTGTAGGTT | 0.957
88 | AGTAAATTGA | 0.975
89 | ACACATTAC | 1.8
90 | GGATAATCTA | 1
91 | CCTCTGCCTT | 3.34
92 | GGTGTCCCGG | 1.03

Row | Sequence | switch fluorescence ratio
93 | GTGTTAACGA | 1.01
94 | GCCGCAAAAG | 2.3
95 | TTGTGAGAA | 1.02
96 | AATAGGTGGA | 1.02
97 | AAACGTACCT | 1.53
98 | GCGGTTAATG | 0.952
99 | AGCACTCGCT | 0.984
100 | ACATAGTCAA | 1.11
101 | TTGCTGGCAA | 1.39
102 | TTCGAATGTT | 1
103 | TCTGTCATTG | 0.973
104 | AGAAAAGTTG | 0.976
105 | CGGTAAAGTA | 0.966
106 | AGAGGTATTG | 0.98
107 | GAATGAGGGA | 1.01
108 | CTCATTTTCC | 1.09
109 | TTCGGTGTAA | 0.997
110 | AAATTAGGAC | 1.05
111 | CAGGGCCCTC | 1.03
112 | TTGTTCGAG | 0.969
113 | ACACTTCGAC | 1.1
114 | TTTCCCGAG | 0.976
115 | GCTGAACCGT | 1.01

Row | Sequence | switch fluorescence ratio
116 | CTGTGGCAA | 3.76
117 | GCGAGCCTAT | 0.952
118 | GTTGAAATAG | 1.04
119 | GGGGCGAGGA | 0.931
120 | CCGTGCGTCA | 1.32
121 | CGGTACGCAC | 1.74
122 | AGTCCGTCTC | 0.972
123 | TATCTGTCAT | 1.03
124 | ATAGGTGTGT | 0.984
125 | GGCACCCATG | 0.959
126 | ACCACCCTAA | 1.1
127 | CGGTTGTACG | 0.995
128 | TCGAAAGTCA | 1.04
129 | GTGACGCGCC | 1.13
130 | GGGTTCCTTA | 1
131 | ATGACGTCGG | 0.989
132 | AGACGATCAT | 1.07
133 | CGTTGCGATC | 1.4
134 | CCTGTTCCGT | 0.952
135 | TGATTACTCC | 1.24
136 | ACGCGGTGTG | 0.967
137 | CTCCCCACTA | 1.03
138 | CGTACATCCT | 1.03

Row | Sequence | switch fluorescence ratio
139 | GGACCGTATT | 1.12
140 | CATCCTTAAC | 1.28
141 | TTTACATGGG | 0.972
142 | GTCTCCTCG | 1.07
143 | CCGGAATCGC | 3.52
144 | GGATACTTAG | 1.03
145 | ATCGAATTCC | 1.03
146 | CTGAAGGATA | 1.03
147 | CTCTCACGGC | 1.31
148 | TTACGGTCTG | 1.02
149 | AGGGTGTGAG | 1.01
150 | CATCGTTTGA | 1.01
151 | GAGCGCCAGG | 0.988
152 | TTCGGGCCCT | 1.01
153 | GAAGAAGGGG | 1.01
154 | GGATCTGGAG | 1.06
155 | GTTACACTTT | 1.02
156 | GGTTTGCTTT | 1.01
157 | GGCGTCCGTG | 1.01
